Measurements: the RNAGym collection of RNA variant scans (doi:10.7554/elife.90254)
Read counts are not given, so values of variants with three or more changes are uncertain.

B1: LINE1-full (parent)
chain: UACGUAGGUGGUUUUCCCCUGAUAGUGCUAAGGGGGCCUGGAAGUUUGGACUGGGCAGAGCUCAACACAGCGUGGCAAAGUGGCUGUGGCUAGACUGCCUCUCUGGAUUCCUCGUCACUCAGCAGGGCAUCUCUGAGAGAAAUGCC

Variants of: B1
Experiment: self-cleavage, relative activity (ratio to wild type); higher = more cleavage; in vitro, sequencing; the parent is a self-cleaving ribozyme

Variant | self-cleavage
U23C A78G U109C | 2.83
U46A A107G A129G | 0.79
G4U A69U U130C | 0.19
A22G A69G C90U A94C A140G | 0.3
U23C A67G U112A A140G | 0.72
U81C A94G A107G A121U G127A | 0.95
U12C U20C A67G A117U G127A | 0.82
U39A U47C U85A A94U | 0.15
C3U U115C U134A | 2.04
A64U A94G A141G | 0.15
U1C A65G A92U | 0
G74A A77G U100C U108C | 2.19
U13C A59G A117G | 0
U13C C38A U104C A140G | 0.66
U14C A65G U81A A142G | 0.47
U29C G32A U96A U112C | 0.06
U39C A42G U45C G88A | 0.24
U15C U52A A57G U81C | 0.97
G27A U108C A124G | 1.53
U62C A124U A136G A141G | 0
U20C G34U A69U A79G G105A A121G U130C | 0.08
U87A U102A U109A | 0.07
U12C U119A C123U | 1.57
U12A U81A U96C U108A U109A U119C | 0.31

Variant | self-cleavage
U20A G48U A141G | 1.65
U14C U20C A78G A92G | 0.2
A31U U115A U143C | 0.86
G21A A77G U104C U109C U115A | 1.08
G32A A79G U132A | 1.44
C3U U13A G32U | 1.08
C113U A140G U143C | 0.37
A138G A140U A142U | 1.86
G88A U102C U119C | 0.05
U15C U47C A67G A121U A129U | 0.41
A42C A59U U132C | 0.54
U15C A42G U73G U104A A107G | 1.72
A77U A140U C145A | 1.23
A2G U46C G58U U132C | 0.17
G60A U62A A78G U85C U104A A121U | 0.04
A64G G86A A92U | 0.15
U96A A107G U112C G127A | 0
U26C U96A U130C | 0.14
U13C A22U G35A U52C | 1.2
C18U G27A A42G C51U | 1.28
C61U A129G A141G | 0.05
A59C U73A U87A A138U | 0.05
U29A A77G U87C | 0
U46A C68U U87G | 0.08

Variant | self-cleavage
U46G G82U U130C | 1.44
U23A A65U A67U U73A | 0.06
U12C G60A U102C | 0.02
U13A A64U U73A U100C C110U A136G | 0.6
U13C U62C G74A U109C | 0.04
A42G G105A U109C | 2.35
U14G A22G U47A | 0.89
G7U A50G U87A U119A | 0.08
U46C A64G U132C | 0.2
A57G A65G A136G | 0
U26C A78G C145U | 1.3
U81C G89C A138G | 0.04
U5C G10A C37U A50G U73A U81C A92G | 0.35
U5C A78G A142C | 1.48
A69G A78G U109C | 0
U9A U13C U46C | 1.06
A57U U119A A136G | 0.13
A22U G33U A129G A142G | 1.35
U14C C28U A67G U115C | 0.2
U13G U39C A57U U73A | 0.09
G4A U15C U112C U134C | 1.08
U1C U39A U100A U108C A141G | 1.09
A59G U73A A107G U112A | 0.27
G105A A124U U132C | 1.71

Variant | self-cleavage
U15C U39C A59G A79G | 0
U20A A64G C110U U119A | 0.36
G55A A77U U87C A117U A141G | 0.04
A50G A77U G127A A141G | 0.83
U12C U39A U130C | 1.84
G41U A50G U85A U143C | 0.03
U29A A30G A78U | 1.32
A24G A30U U73C | 2.45
A6G U45C U46C U52A A121U | 1.08
U26A A69C G89A | 0
U14C C28U U104A U112C U130C | 1.15
U115C U134A A138U | 1.44
G34U U100G A136G | 1.27
U12G U20G A31G A59G U87A U119A | 0.71
A6U G36U U62C A79G | 0.07
U15C U62C U100C | 0.22
A65U C90A C99A A136U A138G | 0.02
A24G A65U U102A U119C | 0.29
U46C U81A C113A A140G | 1.9
U12C A78G U96C | 0
U9A U46C U130C | 1.15
U46A A121G U130C | 1.6
U14C A50G A117U A129G | 1.45
U14A U62C U100C G127A | 0.07

Variant | self-cleavage
C38U U52C U62C U100C | 0.14
U45C A50G U87A A124G | 0
A2G C61U A67G | 0.36
C38A A43G U62A A77G A78U | 0.03
U20C U96A G114U A117U A138G A140G A141G | 0.05
U45G U47C A136G | 1.23
A2G A43G G48A U81A | 0.67
U73G U81A A142G | 1.92
A31U U39C A117U | 0.93
U73C U85A U112C | 0.11
U20C A31G A124U | 2.19
G32A U39C U96C U115C | 0
U15C A136G A138G | 0.61
U14C U20C A22U C56U U87C | 0.27
G74A A107G A136G C146U | 0.88
U15C G89A U100C | 0.02
U45C U46C U85A U143C | 0.14
U15C G25A A57G C128U | 0.7
A30G A69G U143C | 0.42
U26C G70U U91C | 0.05
U13C U85A C103U | 0.15
U1C A50G U132C | 0.16
U15C U62C A79G U132A | 0
U14C A64G U73A | 0.49

Variant | self-cleavage
U14C U87A U119C | 0.1
U14C U46C A67G A79U A117G | 2.04
U9C A42G U102A U108C | 0.97
U52A U73A C76U U100A | 2.74
U13C A67G A107G C118U | 0.73
A31G A69U U73A A107U A136U | 0.07
U12C U14C A43G U119A | 0.97
U5C C37U G49A A107G | 0
A43G U62C A124G U143C | 0.13
G4A A43U U47C | 1.23
A57U U108C U132C | 0.48
U47C U85A A141C | 0.34
U14A A124U U132C A141G | 0.22
U15C G41A A69G | 0.59
A31G G48A A50U | 1.17
G60A A65G U73A C145U | 0
U15C A78U U104A U112A | 2.44
U14C A57U U85C G125U | 0.12
A30G U62A G93A | 0.08
U9C A77G G139A | 1.68
U29C A57G U85C | 0
U26A A117G G122C | 1.34
A92U U115C A136G | 1.11
U13A A67G U81A U134A | 0.32

Variant | self-cleavage
A42G A59U G125C | 1.46
U47C U109A A138G | 1.5
G33U A42G A117G | 0.69
U1A U15A U112C | 0.86
C19A A57G U96C U100A A107G G135A | 2.63
U1C G10U U96A A107G | 0.34
U46C A107G U119A | 1.02
U26C A94G A138U | 0.5
A57G U91C U134C | 0
U47G U81A U130C | 0.5
G48A A129G A142G | 1.1
U13C U20A U39A A79G U81C | 0
U45C U112A U119C U132C A142G | 0
G8A C84A U85C U115C U143A | 0.03
A30U A129G A141G | 0.92
A2U A57G U91C A107G A138G | 0
U12G U15C A69U | 0.18
A65G A78G A121G | 0.15
U23A A94U U102A U109C A124G A142G | 0.53
A31C C37U U47A | 0.85
U26C U29A A77G | 1.93
U13C C28U U47A A67G | 0.18
U14C A79G G125A A140G | 1.55
